The record followed here is patent US10112926B2 (priority 2014, dated 2018).

Where a name gives a salt, the structure may show the parent alone.

The assay concerns IL-8-induced neutrophil shape change in human whole blood. As to conditions: read-out: Assay L WBSC IC50; hydrochloride.

By IC50 is commonly meant the concentration needed to halve the response being measured. `Cc1noc(-c2cc(-c3cc(S(=O)(=O)N[C@H]4CC5(C[C@@H](O)C5)C4)ccc3C)cnc2N)n1` (single isomer, unassigned) [Example 8.2, (R) or (S)-3-[6-Amino-5-(3-methyl-[1,2,4]oxadiazol-5-yl)-pyridin-3-yl]-N-(6-hydroxy-spiro[3.3]hept-2-yl)-4-methyl-benzenesulfonamide hydrochloride]: the IC50 amounted to 630 nM.
